Reference: PubChem BioAssay AID360 (National Center for Advancing Translational Sciences (NCATS), 2006)
About 550 (1.1%) of roughly 48,000 compounds were called active. Inconclusive results, whose numbers are uncertain, are shown with a selection of clear calls. Rule as the data show it: active = potency below about 15 µM; inconclusive = mostly about 16 µM to 33 µM; inactive = weaker than that. Potencies beside an inconclusive call are fits to weak or partial responses and may not hold up.

Target: Lysosomal acid glucosylceramidase (Homo sapiens) (UniProt P04062)
UniProt P04062, sequence (P04062 whole entry, looked up): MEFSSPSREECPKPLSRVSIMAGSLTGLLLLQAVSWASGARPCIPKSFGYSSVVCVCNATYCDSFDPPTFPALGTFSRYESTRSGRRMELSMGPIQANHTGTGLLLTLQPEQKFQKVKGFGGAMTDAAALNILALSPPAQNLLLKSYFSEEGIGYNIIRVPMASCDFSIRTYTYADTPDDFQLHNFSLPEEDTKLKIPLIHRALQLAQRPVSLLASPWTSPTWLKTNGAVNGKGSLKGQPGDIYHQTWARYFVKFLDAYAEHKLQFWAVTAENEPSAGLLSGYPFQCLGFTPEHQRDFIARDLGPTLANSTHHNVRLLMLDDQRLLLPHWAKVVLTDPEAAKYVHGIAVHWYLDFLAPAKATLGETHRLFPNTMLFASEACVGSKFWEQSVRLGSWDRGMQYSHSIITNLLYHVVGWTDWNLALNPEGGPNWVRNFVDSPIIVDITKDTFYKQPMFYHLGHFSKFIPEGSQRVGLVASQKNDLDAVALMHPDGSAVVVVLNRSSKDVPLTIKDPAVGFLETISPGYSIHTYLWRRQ
Assay: Glucocerebrosidase;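 also: the screen sought inhibitors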
Details: purified enzyme, resorufin glucoside fluorescence (screen aimed at inhibitors), 20 min
How it was run: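 Normal human glucocerebrosidase (0.2 nM final) was assayed with resorufin β-D-glucopyranoside (30 uM final) in 50mM citric acid/KH2PO4, 10mM sodium taurocholate, 0.01% tween-20, pH 5.9. Compounds were titrated; fluorescence (Ex 548, Em 600) read after 20 min at RT.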
Potency is read from the fitted curve at half-maximal effect.

Potency, inactive:
CC(=C1C2C=CC1C1C(=O)NC(=O)C21)c1ccccc1 (configuration not stated) > 76.9 µM
CCOC(=O)C1=C(O)C(=O)N(c2ccc(S(N)(=O)=O)cc2)C1c1ccc(OC)cc1 (configuration not stated) > 76.9 µM
COc1cc(CC(=O)N2CCc3ccccc32)cc(OC)c1OC > 76.9 µM
COC(=O)c1oc2ccc(Br)cc2c1-n1cccc1 > 76.9 µM
Cc1ccc(C2C(C#N)=C(N)Oc3n[nH]c(-c4cccs4)c32)s1 (configuration not stated)
CCOC(=O)CSc1nnc(NC(=O)c2cccc(S(=O)(=O)N3CCCC3)c2)s1 > 76.9 µM
Cc1ccc(C)c(N2CCN(C(=O)CN(C)S(=O)(=O)c3cnc[nH]3)CC2)c1 > 76.9 µM
O=C(NCc1ccco1)C(c1cccs1)N(Cc1ccccc1)C(=O)Cn1nnc2ccccc21 (configuration not stated) > 76.9 µM
CS(=O)(=O)N(CC(=O)N1CCN(c2cccc(Cl)c2)CC1)c1ccccc1 > 76.9 µM
Oc1c(CN2CCN(c3ccccn3)CC2)cc(Cl)c2cccnc12
CC(C)(C)C(=O)/C(C#N)=c1\s/c(=C\c2ccncc2)c(=O)n1CCCN1CCOCC1
Cc1ccc2nc(NCCCN3CCOCC3)c(C=NCCCN3CCOCC3)c(=O)n2c1 > 76.9 µM
Cc1cc(NC(=O)CN2C(=O)C3CC=CCC3C2=O)no1 (configuration not stated) > 76.9 µM
Cc1ccc(C2NC(=O)c3c(sc4c3CCN(C)C4)N2)s1 (configuration not stated) > 76.9 µM
COC(=O)c1ccc(NC(=O)CSc2nnc(C)n2-c2ccccc2)cc1 > 76.9 µM
COc1ccc(C2CC(c3ccccc3Cl)Nc3ncnn32)cc1OC (configuration not stated) > 76.9 µM
Cn1c(=O)[nH]c(=O)c2c1nc(CN1CCOCC1)n2Cc1ccccc1 > 76.9 µM
O=C(CSc1nnc(-c2ccc(Cl)cc2)n1Cc1ccco1)Nc1ccc2c(c1)OCCO2 > 76.9 µM
Nc1nc(-c2ccc3c(c2)CCCC3)cs1
O=C(Nc1cccc(-c2cnc3ccccc3n2)c1)c1ccco1 > 76.9 µM
COCCOc1ccc(C(F)(F)F)cc1NC(=O)COC(=O)c1c(C)noc1C > 76.9 µM
Cc1ccc(NC(=O)CSc2nnc(-c3ccc(S(=O)(=O)N4CCOCC4)cc3)n2C)cc1 > 76.9 µM
Cc1ccc(-n2ncc3c(=O)n(CC(=O)OCc4ccccc4)cnc32)cc1 > 76.9 µM
CC(OC(=O)c1ccccc1NCc1ccco1)C(=O)Nc1ncc(Cl)cc1Cl (configuration not stated) > 76.9 µM
Cc1cc(C)c(C#N)c(Nc2ccccc2Cl)n1 > 76.9 µM

Potency, inconclusive:
CCCC(=O)Nc1ccc(-c2nc3cc(C)c(C)cc3o2)cc1 21 µM [decreasing]
CCOC(=O)c1ccccc1NC(=O)c1ccc(Cl)c(S(=O)(=O)N2CCOCC2)c1 16.9 µM [increasing]
COc1ccc(Nc2ccnc3ccccc23)cc1 17.5 µM [decreasing]
O=C(COC(=O)CCc1ccc(S(=O)(=O)N2CCOCC2)cc1)Nc1ccc(Cl)cn1 19.2 µM [decreasing]
Cc1ccc(S(=O)(=O)c2c(C)nn(C(C)(C)C)c2OC(=O)c2cccs2)cc1 19.4 µM [decreasing]
CCc1nnc(NC(=O)CSc2nnc(-c3c[nH]c4ccccc34)n2C)s1 28.6 µM [decreasing]
CCOC(=O)c1cc(-c2ccccc2)sc1NC(=O)C(C)Sc1nnnn1C (configuration not stated) 18.8 µM [increasing]
CCOC(=O)c1c(NC(=O)CNCCO)sc(C)c1C 17.3 µM [decreasing]
CC(C)(C)N(Cc1ccccc1)C(=O)CSc1nnc(CNc2ccc(F)cc2)o1 19.8 µM [decreasing]
Cc1ccc(-c2csc3nnc(SCC(=O)N4CCN(Cc5ccccc5)CC4)n23)cc1 18 µM [decreasing]
Cc1ccc2cc(C(c3nnnn3C3CCCC3)N(Cc3cccnc3)Cc3ccco3)c(=O)[nH]c2c1 (configuration not stated) 18 µM [decreasing]
CCC(CC)C(=O)Nc1nnc(-c2cccs2)s1 19.3 µM [decreasing]
COc1ccc2nc(SCc3cnc(C)nc3N)[nH]c2c1 32.8 µM [decreasing]
O=C(NC1=NC2CCCCC2N1)c1ccccc1 (configuration not stated) 23.1 µM [decreasing]
Cc1nnc(SCC(=O)Nc2ccccc2)n1CCc1ccccc1 18.4 µM [decreasing]
O=C(NCCc1ccccc1F)[C@@H]1CSC2c3ccccc3C(=O)N21 (some centres not stated) 15.5 µM [decreasing]
CN(C)Cc1c(O)ccc2oc(Cc3ccccc3)cc12 20.1 µM [decreasing]
COc1cccc(-c2cc(C(F)(F)F)n3ncc(C(=O)NCC4CCCO4)c3n2)c1 (configuration not stated) 20 µM [increasing]
CCOC(=O)Cn1nnnc1C(C(C)C)N(Cc1cc2c(C)cc(C)cc2[nH]c1=O)C1CCCC1 (configuration not stated) 16.7 µM [decreasing]
Cc1c(C(=O)NCCN2CCOCC2)sc2nc(-c3ccc(F)cc3)cn12 25 µM [decreasing]
CSc1nc(=NC(C)=O)ss1 20.5 µM [decreasing]
Nc1ncnc2nc(N3CCN(C(=O)c4ccccc4)CC3)[nH]c12 21.9 µM [decreasing]
O=C(NC12CC3CC(CC(C3)C1)C2)N1CCN(c2ccccn2)CC1 33.2 µM [decreasing]
COc1ccc(C2=Nn3c(nnc3-c3ccc(OC)cc3)SC2)cc1 16.3 µM [decreasing]
O=C(NCc1ccco1)C(c1ccco1)N(C(=O)Cn1nnc2ccccc21)c1ccc2c(c1)CCC2 (configuration not stated) 27 µM [decreasing]
Clc1ccc(Cn2ncc3c(NCCN4CCOCC4)ncnc32)cc1 23.1 µM [decreasing]
CCCCn1c(=O)[nH]c(=O)c2c1nc(-c1ccc(C#N)cc1)n2C1CCCC1 24.5 µM [decreasing]
O=C(NCCc1ccccc1)C1CCN(S(=O)(=O)N2CCCC2)CC1 33.2 µM [decreasing]
CN(C)c1ccc(/C=N/n2ncc3ccccc32)cc1 28.6 µM [increasing]
CN1CCN(S(=O)(=O)c2ccc(Sc3nnc(-c4cccs4)n3-c3ccccc3)nc2)CC1 16.2 µM [decreasing]
CN(C)c1ccc(CNn2cnnc2SCc2ccc(F)cc2)cc1 27.4 µM [decreasing]
Cc1noc(C)c1COC(=O)c1ccc(-c2nc3ccccc3s2)s1 20.3 µM [increasing]
O=C(NC(=O)c1cccc(OC(F)(F)C(F)F)c1)OC1CCS(=O)(=O)C1 (configuration not stated) 16.2 µM [decreasing]
C[C@H](N)c1nnc(SCc2ccc(Cl)cc2Cl)o1 25.8 µM [decreasing]
Cc1ccc(-n2c(N)c(C(=O)N3CCN(C)CC3)sc2=S)cc1 17.9 µM [decreasing]
COCCNc1nc(SCC(=O)N2CCN(c3ccccc3)CC2)nc2ccccc12 17.8 µM [decreasing]
Cc1cc(C)c(C)c(S(=O)(=O)Nc2ccccc2C(=O)NCCCn2ccnc2)c1C 18.2 µM [decreasing]
CC(C)Cn1c(N)c(C(=O)NCCN2CCOCC2)c2nc3ccccc3nc21 33.4 µM [decreasing]
Cn1c(=O)c2c(nc(SCCN3CCCCC3)n2Cc2ccccc2)n(C)c1=O 23.8 µM [decreasing]
Nc1c(S(=O)(=O)c2cccc(Cl)c2)c2nc3ccccc3nc2n1/N=C/c1ccc(O)c(O)c1 30.3 µM [decreasing]
O=C(CSc1nc(O)c(C2CCCCC2)c(=O)[nH]1)Nc1ccc(Cl)cc1 16.6 µM [decreasing]
COc1ccc2[nH]c3c(NCCN4CCCCC4)ncnc3c2c1 20.6 µM [decreasing]
CC(=O)c1ccc(N(C)C)c2c(N(C)C)cccc12 18.5 µM [decreasing]
O=S(=O)(Nc1ccc2c(c1)nc1n2CCN(Cc2ccccc2)C1)c1ccccc1 30.5 µM [decreasing]
CCCOc1ccc([C@@H]2C3CN(C(=O)OCC)CC=C3C(C#N)=C(N)C2(C#N)C#N)cc1OC (some centres not stated) 22.8 µM [decreasing]
CC(C)(C)NC(=O)c1cccc(NC(=O)c2ccc(NC(=O)c3ccco3)cc2)c1 18.8 µM [decreasing]
O=C(Nc1ccc(N2CCOCC2)c(Cl)c1)c1cccnc1 16.7 µM [decreasing]
CN(Cc1ccccc1)C(=O)CN(C1CCCCC1)S(C)(=O)=O 20 µM [decreasing]

Potency, active:
CCOC(=O)C1CCN(c2ncnc3c2oc2ccc(Cl)cc23)CC1 13.3 µM
Cc1noc(C)c1S(=O)(=O)Nc1ccc(C(=O)NC2CCCCCC2)cc1 5.8 µM
CCc1c(C(=O)Nc2nnc(C3CC3)s2)csc1C 1.48 µM
Nc1nc(Nc2cccc(F)c2)nc2ccccc12 12.8 µM
